Assay results reported in ChEMBL document CHEMBL4888484, “Replenishing the malaria drug discovery pipeline: Screening and hit evaluation of the MMV Hit Generation Library 1 (HGL1) against asexual blood stage Plasmodium falciparum ,using a nano luciferase reporter read-out” (2022).
About 420 (8.8%) of roughly 4,800 compounds showed an effect of 50% or more. The list shows a part of the results.

What follows are compounds tested on Plasmodium falciparum (assay: Confirmatory screen in NF54 nanoGlo assay, in single point, at 2uM, 72h). Conditions: timepoint 72 hour.
Type: functional, Erythrocyte

Compound	% Inhibition [%]
CC1CCC(N2CC(C(=O)N(C3CC3)C(C)C(C)C)CC2=O)CC1 (stereo not drawn)	0
O=C(N[C@@H]1CN(Cc2ccccn2)CCC[C@H]1O)c1ccc(OCc2ccccc2)cc1	30
Cc1cc(=O)n2ncc(C(=O)N3CCN(c4ccc(Cl)cc4)CC3)c2[nH]1	-9
COC[C@H]1[C@H](NC(=O)c2ncc(F)cc2F)[C@H]2CCO[C@H]21	-5
Cc1cc(C)n(S(=O)(=O)c2cccc3cccnc23)n1	-8
Cc1ccc(C2C(C(=O)N3CCC(C)CC3)CCC(=O)N2C)cc1 (stereo not drawn)	-3
C[C@@H](CC(=O)O)N(C(N)=O)c1ccc(Nc2ccccc2)cc1	4
COc1cc(Cl)cc2c1OC=CC(C(=O)Nc1ncc(Cc3ccccc3)s1)=C2	-4
Brc1ccc(Oc2ncc(CN3CCOCC3)s2)cc1	-2
O=C(COc1ccccc1Cl)Nc1ccc(C2(c3ccc(NC(=O)COc4ccccc4Cl)cc3)c3ccccc3-c3ccccc32)cc1	0
CCc1nnc(NC(=O)C2CC2c2ccccc2)s1 (stereo not drawn)	-3
Cc1ccc(C)c(N2CCN(c3ncc4c(=O)n(-c5ccc6c(c5)OCO6)c(=O)[nH]c4n3)CC2)c1	2
N#Cc1cncc(N2CCc3ccccc3C2)n1	-1
O[C@](C#CCN1CCOCC1)(c1ccccc1)C1CC1	8
COC1(CNC(=O)C[C@H](O)c2ccccc2)CCC1	-7
O=C(c1ccc(Cl)c(Cl)c1)C1CCN(C(=O)[C@H]2CCn3cncc3C2)CC1	0
C[C@H](C(=O)NCc1cc(F)cc(F)c1)C1CCOCC1	-5
CCn1cc([C@@H](O)C(F)(F)F)c(C)n1	-4
C[C@@H](c1ccccn1)N1CCC2(CCCCC2)CC1	-8
COc1ccc2c(/C=C/c3cc[n+](C)cc3)cn(Cc3ccccc3)c2c1	35
O=S1(=O)N=C(NC[C@@H](O)Cc2ccccc2)c2ccccc21	8
Cc1nn(CC(=O)NC2CC3CCC(C2)N3C)c2nc(C3CC3)cc(C(F)(F)F)c12 (stereo not drawn)	3
CCCc1ccc(OCCNC(=O)C2CCCC2)cc1	0
Cc1noc(C)c1CC(=O)N1C[C@H]2CCCC(=O)N(Cc3ccccc3)[C@H]2C1	-3
CCOC(=O)N(c1ccccc1)[C@H]1CC(=O)N(c2ccccc2)C1=O	1
CCCOC(=O)Nc1ccc(Br)cc1Br	-2
Cc1noc2ncc(C(=O)N3CCC[C@@H]3CC(C)(C)C)cc12	-4
CCc1cc(C(=O)NCc2cn(C)nc2C)c2c(C3CC3)nn(-c3ccc(F)cc3)c2n1	3
